In assay [1] the target is S2G2-rituximab (28), non-fucosylated sialyl complex type glycoform of rituximab (human). The experiment in a line: SPR.
Assay [2] concerns the target GlcNAc-rituximab (27) (human). In words: SPR. A general note: In SPR one partner is held on a chip, and binding of the other changes the refractive index at the surface.

On to “FcγRIIIA-V158 (sequence not shown) (receptor; modification not given; non-fucosylated sialylated biantennary complex type N-glycan (S2G2) at Asn-297)”, for which, in assay [1], the Kd – broadly, the equilibrium constant for the complex coming apart – stood at 2.2 nM.

Regarding “FcγRIIIA-V158 (sequence not shown) (receptor; modification not given; only the innermost GlcNAc at Asn-297 (no fucose))”, in assay [2], the Kd stood at 784 nM.
